According to the supplement of paper PMC10126150:
Values marked as one replicate rest on one cluster of the flow cell; about a third of the high ones do not repeat.

System: ATP
Assay: switch fluorescence ratio, 500 uM ATP over buffer (Cy3 cluster intensity, sum of 5 cycles each) (fold (ratio)); higher = stronger signal-on switching upon ATP binding; sequences stand for … in TCGTCGGCAGCGTCAGATGTGTATAAGAGACAGTTTTTTTTTTTTTTTTTTTTTTTTT…TC
Conditions: aptamer strand: ATP DNA aptamer (quencher-CACCTGGGGGAGTATTGCGGAGGAAGG + anchor), 100 nM annealed; ATP concentration: 500 uM; one replicate
Procedure, shortened: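 Five buffer/ATP imaging cycles were run on Cy3-labelled switching-strand clusters on a modified Illumina MiSeq flow-cell, with NaOH stripping and re-annealing between cycles. In each cycle, clusters annealed to 100 nM quencher-labelled ATP aptamer were imaged in selection buffer, then after 15 min with 500 uM ATP at 22 °C. Per cluster, the fluorescence ratio is summed target-cycle over summed buffer-cycle Cy3 intensity, averaged per switch-domain sequence. Only clusters within 100-1000 RFU were kept.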
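Note: ATP exposure 15 min at 22 °C before imaging.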

CTTAAGTTTA showed a switch fluorescence ratio of 1.51.
ACACAGCGAA gave a switch fluorescence ratio of 1.19.
Work on AGAGCAGGCG yielded a switch fluorescence ratio of 1.18.
Sequence CTGTGTTACA has a switch fluorescence ratio of 0.986.
Work on ATAATGCACA yielded a switch fluorescence ratio of 1.07.
Work on ACTCATGCCC yielded a switch fluorescence ratio of 1.1.
Sequence CCTTGTCGCT has a switch fluorescence ratio of 1.1.
CACGATTGCT was tested, and the switch fluorescence ratio was 1.05.
TTCCGATCT showed a switch fluorescence ratio of 1.48.
Work on TTCCAGTA yielded a switch fluorescence ratio of 1.03.
ATTCTTCCGA showed a switch fluorescence ratio of 1.83.
For TGTCGATTGT, the switch fluorescence ratio was 0.947.
GTGTGACACC showed a switch fluorescence ratio of 0.954.
TTGGTAACAG was tested, and the switch fluorescence ratio was 1.01.
Work on GGGAGGAAT yielded a switch fluorescence ratio of 0.991.
ATAGAACCG showed a switch fluorescence ratio of 1.07.
With AATCGGAC the switch fluorescence ratio was 1.07.
With TACTTTTCAT the switch fluorescence ratio was 0.973.
In the case of CGGACGCGGA, the switch fluorescence ratio is reported as 1.24.
Work on TGAGCGTCAA yielded a switch fluorescence ratio of 1.07.
In the case of TGGAACTCTA, the switch fluorescence ratio is reported as 0.989.
AATTGACTCA gave a switch fluorescence ratio of 1.01.
TATGAGACAT was tested, and the switch fluorescence ratio was 1.05.
In the case of AAGGTGCTCA, the switch fluorescence ratio is reported as 1.09.
TAAATGTTT showed a switch fluorescence ratio of 0.969.
Work on TAAAATACTC yielded a switch fluorescence ratio of 1.21.
CTGGGCACTA gave a switch fluorescence ratio of 1.04.
TGTGGTCACA gave a switch fluorescence ratio of 0.975.
With TCGGTTGCCA the switch fluorescence ratio was 1.02.
CATCATAAAG gave a switch fluorescence ratio of 1.02.
GGAGTCTGCT showed a switch fluorescence ratio of 1.
With ATCTTATGCC the switch fluorescence ratio was 0.932.
Work on CCGCACTTTT yielded a switch fluorescence ratio of 2.05.
ATCCGTAGGG showed a switch fluorescence ratio of 1.
For GGCACAGTTG, the switch fluorescence ratio was 1.
AAGCATAAGT was tested, and the switch fluorescence ratio was 1.02.
For TTCATTCGAT, the switch fluorescence ratio was 0.999.
GGAGAGCTGG was tested, and the switch fluorescence ratio was 0.979.
AGGACAGTTG gave a switch fluorescence ratio of 0.962.
GATCGCTTAA gave a switch fluorescence ratio of 1.03.
ATATCTAACC showed a switch fluorescence ratio of 1.01.
With GATCCGTTGG the switch fluorescence ratio was 1.03.
For TATCACAGAC, the switch fluorescence ratio was 2.
With CCCCTTTCTA the switch fluorescence ratio was 0.981.
For TCCTCGTCCG, the switch fluorescence ratio was 1.2.
In the case of GTATATAAGC, the switch fluorescence ratio is reported as 1.05.
For AGTTAGACCT, the switch fluorescence ratio was 1.31.
In the case of GCTGATAACT, the switch fluorescence ratio is reported as 0.993.
GGGATTCTGG showed a switch fluorescence ratio of 0.97.
CGATTGGTGA was tested, and the switch fluorescence ratio was 0.986.
GTAACTAGCT gave a switch fluorescence ratio of 0.986.
CGGTCGAAAC showed a switch fluorescence ratio of 1.01.
For AGATGATAAA, the switch fluorescence ratio was 1.02.
AGTTCGTGC gave a switch fluorescence ratio of 1.01.
With GATAAAACGG the switch fluorescence ratio was 0.937.
Work on TACGTTTTTG yielded a switch fluorescence ratio of 1.17.
GTTTTGACTT was tested, and the switch fluorescence ratio was 1.01.
Work on TCTGTGGGC yielded a switch fluorescence ratio of 0.935.
Work on ACCGTGATGA yielded a switch fluorescence ratio of 0.996.
Work on CACGTGGAGG yielded a switch fluorescence ratio of 1.06.
Work on GTTCGTGGTC yielded a switch fluorescence ratio of 0.971.
In the case of GGTACGGGC, the switch fluorescence ratio is reported as 1.04.
AATCCAGATA showed a switch fluorescence ratio of 1.03.
For AAAACAAGAC, the switch fluorescence ratio was 1.69.
TGGGGTATCG showed a switch fluorescence ratio of 0.974.
In the case of CTCAGGGGCT, the switch fluorescence ratio is reported as 1.22.
In the case of GATTATT, the switch fluorescence ratio is reported as 1.
Work on GATGAACGGA yielded a switch fluorescence ratio of 1.
TAATGTGATA showed a switch fluorescence ratio of 1.01.
Sequence ATGGTAGGG has a switch fluorescence ratio of 1.01.
GAATAAGGT showed a switch fluorescence ratio of 1.02.
Work on GTAAGTTACG yielded a switch fluorescence ratio of 0.992.
For TAAAATGTGG, the switch fluorescence ratio was 0.986.
CGATAGAGCT was tested, and the switch fluorescence ratio was 1.02.
In the case of TACGAAGTTG, the switch fluorescence ratio is reported as 0.983.
Work on CAGGTATCTA yielded a switch fluorescence ratio of 1.
AAAGGCATTG showed a switch fluorescence ratio of 1.01.
Work on TCAAAATGCG yielded a switch fluorescence ratio of 1.
For TGGACCAATG, the switch fluorescence ratio was 1.04.
For CCAGCGGGGT, the switch fluorescence ratio was 1.09.
With GTAGACGTTG the switch fluorescence ratio was 0.974.
With GACCCCCTA the switch fluorescence ratio was 1.33.
In the case of CAAGAGGATT, the switch fluorescence ratio is reported as 1.02.
Sequence GAAAGGCTTG has a switch fluorescence ratio of 1.05.
TCGCGATGTA gave a switch fluorescence ratio of 1.02.
Sequence GATCAATAAC has a switch fluorescence ratio of 1.02.
CTGGAACCGC showed a switch fluorescence ratio of 3.67.
TTCTTCCTTC was tested, and the switch fluorescence ratio was 1.43.
GAAATTTAAT was tested, and the switch fluorescence ratio was 1.03.
For AGTAGGGTCG, the switch fluorescence ratio was 0.998.
AGTCCGTTCC showed a switch fluorescence ratio of 1.32.
In the case of AACGCGGCTT, the switch fluorescence ratio is reported as 0.971.
CGGAGAGTAT was tested, and the switch fluorescence ratio was 0.996.
For CGTTAGTGAC, the switch fluorescence ratio was 1.02.
GTAGGGGAAT gave a switch fluorescence ratio of 1.02.
AGATCAGAAA gave a switch fluorescence ratio of 0.994.
GGCGAAATGC gave a switch fluorescence ratio of 1.76.
Sequence GCTCCCGAAA has a switch fluorescence ratio of 3.15.
CTGACAGAGA was tested, and the switch fluorescence ratio was 1.02.
Work on GCGGCATAAG yielded a switch fluorescence ratio of 1.01.
For GGCACCTTCG, the switch fluorescence ratio was 1.63.
CTGGGCTGGA gave a switch fluorescence ratio of 0.985.
AGATGTAAAG showed a switch fluorescence ratio of 1.01.
In the case of GGGCTGTACC, the switch fluorescence ratio is reported as 1.02.
Work on GGTTCGTGTT yielded a switch fluorescence ratio of 0.949.
With TTCCCGCATT the switch fluorescence ratio was 1.2.
For TGCATCACGC, the switch fluorescence ratio was 1.01.
TATGTGACCG gave a switch fluorescence ratio of 1.16.
GATAACGCAT was tested, and the switch fluorescence ratio was 2.28.
GCGGAAGGAT was tested, and the switch fluorescence ratio was 0.994.
Sequence CGCGGTGGCC has a switch fluorescence ratio of 1.03.
TTAAGACCTT was tested, and the switch fluorescence ratio was 0.959.
AAGCGCGAAT showed a switch fluorescence ratio of 1.01.
Work on GGGTGCCACA yielded a switch fluorescence ratio of 0.978.
TCAAACGATG gave a switch fluorescence ratio of 1.02.
Work on CCAGTTGTCG yielded a switch fluorescence ratio of 1.03.
CAGATTGAGC gave a switch fluorescence ratio of 0.987.
In the case of ACAGCGGGTC, the switch fluorescence ratio is reported as 1.
In the case of ATTCGATACC, the switch fluorescence ratio is reported as 1.02.
For GACGGCAGGC, the switch fluorescence ratio was 1.05.
Sequence TGACAGTGTG has a switch fluorescence ratio of 0.974.
In the case of TCTGGAAAGT, the switch fluorescence ratio is reported as 0.983.
For CTATATTTAA, the switch fluorescence ratio was 0.997.
With CCTGACGACT the switch fluorescence ratio was 1.63.
TATTGAATTG gave a switch fluorescence ratio of 0.994.
Work on ACTCTCAATT yielded a switch fluorescence ratio of 1.21.
For ACCGAGTTG, the switch fluorescence ratio was 1.
For GTTTTCATTC, the switch fluorescence ratio was 1.04.
CCCTGTGAGA showed a switch fluorescence ratio of 1.02.
In the case of TTAGCCATTA, the switch fluorescence ratio is reported as 1.03.
Sequence TTGAAGCTCT has a switch fluorescence ratio of 0.99.
CCAAAATAGG was tested, and the switch fluorescence ratio was 1.04.
In the case of CCTAAAAGTC, the switch fluorescence ratio is reported as 0.956.
GGTGGACCGT was tested, and the switch fluorescence ratio was 0.987.
AACGTCTGCC gave a switch fluorescence ratio of 1.05.
Sequence TTATTCATGA has a switch fluorescence ratio of 0.979.
Sequence GTTAGAATGA has a switch fluorescence ratio of 1.
With TGGTGTAGGT the switch fluorescence ratio was 1.01.
In the case of GTGCTCTTGT, the switch fluorescence ratio is reported as 0.981.
Work on CACAACGTGG yielded a switch fluorescence ratio of 0.984.
In the case of TTGTGTTATG, the switch fluorescence ratio is reported as 0.915.
Work on ATATGGAATG yielded a switch fluorescence ratio of 1.02.
ATTTGGTTAT gave a switch fluorescence ratio of 0.993.
CTGCTTGAAT gave a switch fluorescence ratio of 1.06.
AACTATTTTT showed a switch fluorescence ratio of 0.968.
In the case of AAGCGGTAGC, the switch fluorescence ratio is reported as 0.99.
GGATACTCTT gave a switch fluorescence ratio of 1.
For CTTATTCTAT, the switch fluorescence ratio was 0.991.
For CCCGAGATCA, the switch fluorescence ratio was 1.62.
TAGACTCCAG showed a switch fluorescence ratio of 1.
AGCCCCTTAC showed a switch fluorescence ratio of 2.61.
For GATGACATTG, the switch fluorescence ratio was 1.12.
Sequence TCTGTTAGT has a switch fluorescence ratio of 1.03.
With GACTCGTTAT the switch fluorescence ratio was 1.07.
Sequence GGAGCGCGGT has a switch fluorescence ratio of 1.02.
Work on ATGACATTCT yielded a switch fluorescence ratio of 1.02.
TAAGAGCGAC gave a switch fluorescence ratio of 1.03.
TAGGCAACGT was tested, and the switch fluorescence ratio was 0.984.
For GATTGCTAGG, the switch fluorescence ratio was 1.03.
TCTGACCTTG showed a switch fluorescence ratio of 0.985.
In the case of GAGCATATTT, the switch fluorescence ratio is reported as 1.41.
Work on TGGCCGCGGT yielded a switch fluorescence ratio of 1.1.
With ACTTACGACG the switch fluorescence ratio was 1.79.
In the case of GTTAAACCAG, the switch fluorescence ratio is reported as 0.97.
CCCACTGGTT showed a switch fluorescence ratio of 1.54.
For TGTTATCACG, the switch fluorescence ratio was 1.07.
GGTGGCTAAG gave a switch fluorescence ratio of 1.01.
TACTCATTCT showed a switch fluorescence ratio of 1.02.
With ACCGGGCCCG the switch fluorescence ratio was 1.03.
GCTGGAAT was tested, and the switch fluorescence ratio was 1.01.
Work on ATCTGGCGGG yielded a switch fluorescence ratio of 0.997.
TGTGTCACCA gave a switch fluorescence ratio of 1.41.
Sequence CAGGTCCTCT has a switch fluorescence ratio of 1.01.
GGGAGGTTAT gave a switch fluorescence ratio of 1.03.
TTAATTG showed a switch fluorescence ratio of 0.972.
In the case of GCCCGGGTAC, the switch fluorescence ratio is reported as 1.12.
For CTATCCATCC, the switch fluorescence ratio was 1.14.
TTGGTGTTAT was tested, and the switch fluorescence ratio was 0.993.
Work on AGCGTTTTTG yielded a switch fluorescence ratio of 0.976.
With GTAGGAGGCA the switch fluorescence ratio was 0.934.
In the case of TGACACTAGG, the switch fluorescence ratio is reported as 0.989.
GGCGCCCTCG showed a switch fluorescence ratio of 0.98.
GCCAGTAGTC gave a switch fluorescence ratio of 1.03.
AGGACGCAGT gave a switch fluorescence ratio of 1.
Work on TTTCTCCGCG yielded a switch fluorescence ratio of 4.46.
ACACGGCCCT gave a switch fluorescence ratio of 1.07.
CGTCGAACTG was tested, and the switch fluorescence ratio was 1.
In the case of TACGGGCCCA, the switch fluorescence ratio is reported as 0.997.
Sequence AATGCGGTTA has a switch fluorescence ratio of 1.02.
ATTAGCATAG was tested, and the switch fluorescence ratio was 0.999.
CAGGCGCTTT showed a switch fluorescence ratio of 1.1.
Sequence ATTTCACCTG has a switch fluorescence ratio of 1.03.
Work on GAGAAAATCC yielded a switch fluorescence ratio of 1.02.
TCACTTTA gave a switch fluorescence ratio of 1.04.
Sequence GACATCAACG has a switch fluorescence ratio of 1.14.
Work on TCGAATGGGA yielded a switch fluorescence ratio of 1.03.
With ACCTTTCTCC the switch fluorescence ratio was 3.82.
GTCTTAAGGT showed a switch fluorescence ratio of 1.01.
GCCGAAGTGT gave a switch fluorescence ratio of 1.02.
With TTGAACTTTT the switch fluorescence ratio was 0.998.
For CTCTTTTCAA, the switch fluorescence ratio was 0.963.
